Assay results: article PMC4336329 (PLoS ONE, 2015)
About 2,200 (0.71%) of roughly 310,000 compounds showed an effect of 50% or more. Effects have a minus sign here. Some of the results follow.

Biological target: human ether-à-go-go-related gene (hERG) potassium channel (human, UniProt Q12809)
Assay: primary screen, population patch clamp on CHO cells stably expressing hERG

human ether-à-go-go-related gene (hERG) potassium channel, sequence (Q12809 whole entry, looked up): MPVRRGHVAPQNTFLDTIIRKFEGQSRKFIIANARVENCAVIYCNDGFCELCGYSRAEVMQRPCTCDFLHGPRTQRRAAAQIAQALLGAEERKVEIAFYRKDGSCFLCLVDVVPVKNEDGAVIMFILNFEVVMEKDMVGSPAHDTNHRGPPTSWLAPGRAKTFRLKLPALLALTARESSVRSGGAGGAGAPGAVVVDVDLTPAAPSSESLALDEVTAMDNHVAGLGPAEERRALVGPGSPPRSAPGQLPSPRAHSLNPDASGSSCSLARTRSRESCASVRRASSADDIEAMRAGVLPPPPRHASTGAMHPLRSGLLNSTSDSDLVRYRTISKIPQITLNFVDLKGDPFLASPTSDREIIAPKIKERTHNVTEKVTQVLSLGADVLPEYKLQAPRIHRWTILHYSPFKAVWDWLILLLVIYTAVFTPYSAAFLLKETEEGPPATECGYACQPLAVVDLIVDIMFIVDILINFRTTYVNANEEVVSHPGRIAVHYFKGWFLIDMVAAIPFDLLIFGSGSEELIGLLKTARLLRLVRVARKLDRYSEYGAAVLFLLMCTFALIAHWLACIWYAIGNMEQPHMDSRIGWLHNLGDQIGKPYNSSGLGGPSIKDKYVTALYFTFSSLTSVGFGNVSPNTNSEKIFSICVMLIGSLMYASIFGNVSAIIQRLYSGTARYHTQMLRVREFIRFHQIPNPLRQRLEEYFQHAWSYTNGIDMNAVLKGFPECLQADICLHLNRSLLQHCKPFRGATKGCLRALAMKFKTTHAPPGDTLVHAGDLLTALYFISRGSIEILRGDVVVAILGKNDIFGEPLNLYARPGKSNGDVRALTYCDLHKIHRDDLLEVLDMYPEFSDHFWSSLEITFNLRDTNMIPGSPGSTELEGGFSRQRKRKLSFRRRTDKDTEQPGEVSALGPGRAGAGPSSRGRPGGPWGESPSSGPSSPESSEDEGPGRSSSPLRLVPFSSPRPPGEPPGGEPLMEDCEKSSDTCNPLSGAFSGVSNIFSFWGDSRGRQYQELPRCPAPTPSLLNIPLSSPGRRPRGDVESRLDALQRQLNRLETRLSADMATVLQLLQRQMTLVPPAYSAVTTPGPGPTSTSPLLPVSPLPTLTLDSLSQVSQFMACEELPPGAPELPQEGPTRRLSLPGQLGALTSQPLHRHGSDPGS

Row | Compound | hERG current change (%, negative = inhibition) at 1uM [%]
1 | CC(=O)n1c(-c2ccccc2)c(-c2ccccc2)n(C)c1=O | 7.26
2 | Cn1nc(CC(=O)NC2CCCCCC2)c2ccccc2c1=O | 2.98
3 | Cl.O=C(CN1CCCC1)Nc1ccc(Br)cc1 | 14.6
4 | C=CCNC(=S)Nc1ccc2nc(C)c(C)nc2c1 | 12.1
5 | O=C(Cn1nc(-c2cccc(Cl)c2)ccc1=O)Nc1ccc(C(=O)NC2CC2)cc1 | 14.7
6 | CN(C)c1ccc(C(CNS(=O)(=O)c2ccc(F)cc2)c2c[nH]c3ccccc23)cc1 (stereo not shown) | 11.7
7 | COC(=O)c1ccc(CNC(=O)CNc2cc(C(F)(F)F)ccc2N2CCOCC2)cc1 | 9.39
8 | CCSc1ccccc1C(=O)Nc1cccnc1 | 3.42
9 | CCCCc1c(O)nc(SCC(=O)NC(C)(C)C)n(-c2ccccc2C)c1=O | 11.6
10 | Cc1cc(OCc2cc(C(=O)N3CCN(C)C(=O)[C@@H]3C)no2)cc(C)c1Cl | -0.0845
11 | Cc1ccc(-c2nn(CC(=O)NC(C)c3ccccc3)c(=O)c3ccccc23)cc1 (stereo not shown) | 20
12 | CC1(C)Nc2ccccc2N(Cc2ccc([N+](=O)[O-])cc2)C1=O | -4.68
13 | O=C(Nc1c(C(=O)Nc2ccc3c(c2)OCCO3)cnn1-c1ccccc1Cl)c1ccco1 | 18.2
14 | O=C(O)CCCC(=O)NCc1c(Cl)cccc1Sc1ccc(Cl)cc1 | 11.4
15 | Cc1c(C(C)C)c(=O)n(-c2ccc(S(=O)(=O)NC3CCCCC3)cc2)n1C | 13.6
16 | O=C(O)C(=O)O.OCCNCCCCOc1ccc(OCc2ccccc2)cc1 | 5.2
17 | COc1cc(/C=C(/C#N)C(=O)Nc2ccc(Cl)cc2)ccc1Oc1nc(Cl)ncc1F | 16.8
18 | COc1ccc(NC(=O)Nc2c(C)n(C)n(-c3ccccc3)c2=O)cc1 | -2.44
19 | O=C(NCCCCNC(=O)c1ccc(Br)cc1)c1ccc(Br)cc1 | 11.5
20 | C[C@H](NC(=O)C1CCN(S(=O)(=O)c2ccccc2)CC1)C(=O)NCc1cccc(Cl)c1 | 11.7
21 | CCn1cc(/C=C(\NC(=O)c2ccc(OC)c(OC)c2)C(=O)N2CCOCC2)c2ccccc21 | 13.3
22 | COc1nccnc1NS(=O)(=O)c1ccc(NC(=O)c2ccc(F)cc2)cc1 | 6.32

Row | Compound | hERG current change (%, negative = inhibition) at 1uM [%]
23 | C/C(=N\Nc1nc(C(=O)O)cs1)c1ccccc1 | 13.7
24 | COc1ccc(CCNS(=O)(=O)c2c(N)n(C)c(=O)n(C)c2=O)cc1OC | 8.49
25 | COc1ccc(C(=O)Nc2ccnn2C2CCN(C3CCC3)CC2)cc1 | 22.3
26 | CCOc1ccc(OCCC(=O)OCC(=O)Nc2ccc3c(c2)OCO3)cc1 | 7.33
27 | Cc1nn(Cc2ccccc2)c(C)c1N | 3.73
28 | COc1ccc(/C=C/C(=O)Nc2ccc(NC(C)=O)cc2)cc1S(=O)(=O)N1CCOCC1 | 5.62
29 | O=C(NC1c2ccccc2-c2ccccc21)c1ccccc1 | 2.33
30 | Cc1ccc(S(=O)(=O)N(C)C)cc1NC(=O)c1sccc1Cl | 14.9
31 | C=CCn1c(=O)c2ccccc2n2c(SCc3nnc(-c4ccccc4Br)o3)nnc12 | -2.45
32 | CCc1nn(CC(=O)O)c(=O)c2ccccc12 | 12.9
33 | N#Cc1c(-c2ccccc2Cl)c2c([nH]c1=O)-c1ccccc1OC2 | 12.7
34 | CCCn1c2ccccc2c2cnn(CC(=O)N3CCN(C4CCCCC4)CC3)c(=O)c21 | -68.5
35 | Cc1ccc(-c2csc(NC(=O)CN3CCC(C(N)=O)CC3)n2)cc1 | 16
36 | CCOC(=O)c1oc2cccc(O)c2c1CN1CCOCC1.Cl | 3.38
37 | COc1ccc(/C(N)=N/OC(=O)CCC2CCCC2)cc1 | 41.6
38 | CCc1ccc(OCCNC(=O)c2cc(SC)ccc2Cl)cc1 | -0.451
39 | COc1ccccc1/C=C/CN1CCN(Cc2ccc(C)o2)C(CCO)C1 (stereo not shown) | 8.14
40 | O=[N+]([O-])c1ccc(N2CCN(c3ccccc3F)CC2)c(S(=O)(=O)N2CCOCC2)c1 | 11.6
41 | COc1ccc(-c2nc(CN3CCN(c4ncccn4)CC3)c(C)o2)cc1C | 4.08
42 | O=C(CSc1nnnn1C1CCCCC1)Nc1ccc(F)cc1 | 9.34
43 | Cn1c(O)c(N=NC(=O)CNC(=O)c2ccccc2)c2ccccc21 | 8.62
